Data from the supplement of paper PMC12217912.
The list shows a part of the results. Sequences were assembled here from the parent chain. Inactive controls read about 0.05.

B1: TEV protease; numbered along this chain (parent)
chain: MGESLFKGPRDYNPISSSICHLTNESDGHTTSLYGIGFGPFIITNKHLFRRNNGTLVVQSLHGVFKVKDTTTLQQHLVDGRDMIIIRMPKDFPPFPQKLKFREPQREERICLVTTNFQTKSMSSMVSDTSCTFPSGDGIFWKHWIQTKDGQCGSPLVSTRDGFIVGIHSASNFTNTNNYFTSVPKNFMELLTNQEAQQWVSGWRLNADSVLWGGHKVFMVKPEEPFQPVKEATQL

Variants of: B1
Experiment: raw area under fraction-flipped curve 0-4 h after induction (AUC4h, not background-subtracted), DNA-recorder readout of cleavage of the substrate (dimensionless); higher = more cleavage of the substrate by the protease variant
Settings: temperature: 34 °C; time window: 0-4 h after rhamnose induction
Description: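 In vivo DNA recorder in E. coli TOP10(DE3) ΔrhaA at 34 °C. Each TEVp single-site mutant (parent TEVp 0) is paired with a single-site variant of the 7-mer TEVs (canonical ENLYFQ|S). The substrate sits between flexible linkers in a Bxb1-sfGFP-TEVs-SsrA fusion, so cleavage stabilises Bxb1 and speeds flipping of a recombination array, read by NGS. The value is the raw area under the fraction-flipped curve over 0-4 h after rhamnose induction (AUC4h), with ≥20 reads per time point. It is not background-subtracted; inactive controls average about 0.047.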
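Further: Bxb1 expression induced with 0.2% (w/v) L-rhamnose at OD600 near 0.5, cultures sampled hourly, flipped fraction per protease–substrate barcode pair counted by paired-end Illumina sequencing.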

| Variant | area with substrate ENAYFQS | area with substrate ENCYFQS | area with substrate ENDYFQS | area with substrate ENEYFQS | area with substrate ENFYFQS | area with substrate ENHYFQS | area with substrate ENIYFQS | area with substrate ENKYFQS | area with substrate ENMYFQS | area with substrate ENNYFQS | area with substrate ENPYFQS | area with substrate ENQYFQS | area with substrate ENRYFQS | area with substrate ENSYFQS | area with substrate ENTYFQS | area with substrate ENVYFQS | area with substrate ENWYFQS | area with substrate ENGYFQS | area with substrate ENYYFQS |
| --- | --- | --- | --- | --- | --- | --- | --- | --- | --- | --- | --- | --- | --- | --- | --- | --- | --- | --- | --- |
| I86W | 0.0577 | 0.0539 | 0.0729 | 0.0506 | 0.053 | 0.0594 | 0.0715 | 0.0674 | 0.0823 | 0.0613 | 0.0585 | 0.0554 | 0.0678 | 0.0637 | 0.0541 | 0.0537 | 0.0385 | – | – |
| M125E | 0.0592 | 0.0515 | 0.0602 | 0.0675 | – | – | – | 0.0564 | – | 0.058 | – | 0.066 | 0.0523 | 0.0628 | 0.0584 | – | – | 0.0606 | – |
| M125R | 0.0686 | 0.0634 | 0.0659 | 0.069 | 0.0675 | – | 0.106 | 0.0579 | – | 0.0569 | 0.0965 | 0.0664 | 0.0565 | 0.0553 | 0.0719 | 0.0653 | 0.0568 | – | 0.0594 |
| T114A | 0.0683 | 0.0567 | 0.0496 | 0.06 | 0.0663 | 0.0561 | – | – | 0.0742 | 0.0788 | 0.0536 | 0.053 | 0.0588 | 0.0683 | – | 0.0925 | 0.008 | – | – |
| T114W | 0.0698 | – | 0.0533 | 0.0742 | 0.0646 | 0.076 | 0.0979 | 0.0751 | – | 0.0682 | – | 0.0608 | 0.0519 | 0.043 | – | 0.0847 | – | 0.0678 | – |
| T114K | 0.0535 | 0.0733 | – | – | – | 0.0346 | – | – | – | – | – | 0.0577 | – | 0.121 | – | 0.0709 | – | – | – |
| R81M | 0.0513 | 0.0408 | 0.0647 | 0.0606 | 0.0577 | 0.0594 | – | 0.0652 | 0.0755 | 0.0513 | – | 0.0612 | 0.0611 | 0.0628 | 0.0481 | 0.0719 | 0.0417 | 0.0633 | 0.13 |
| R81K | 0.0556 | – | 0.0639 | 0.0646 | – | 0.0775 | 0.0903 | – | 0.0548 | – | – | 0.0629 | – | 0.067 | – | – | – | 0.0401 | – |
| S124A | 0.0723 | 0.0886 | 0.0613 | 0.0672 | – | – | – | – | 0.0626 | – | – | 0.0424 | 0.0594 | 0.0568 | 0.0599 | – | 0.0567 | 0.0643 | 0.0534 |
| S124T | 0.0597 | 0.0639 | – | 0.0545 | 0.0857 | 0.0549 | 0.0959 | 0.0727 | 0.0703 | 0.0522 | – | 0.062 | – | – | – | – | – | 0.0801 | 0.072 |
| S124I | 0.0642 | 0.0363 | 0.059 | 0.0726 | 0.0618 | 0.0814 | – | – | – | 0.0523 | – | 0.0568 | 0.0342 | 0.054 | 0.0761 | – | – | 0.0351 | – |
| S124F | 0.0913 | 0.057 | 0.0587 | 0.0645 | – | – | – | – | 0.0731 | – | 0.046 | 0.0514 | 0.0545 | 0.126 | – | 0.0745 | – | 0.0403 | – |
| I110S | 0.0556 | – | 0.0585 | – | – | 0.0676 | – | – | 0.0439 | 0.0661 | – | 0.0594 | 0.0376 | 0.0643 | 0.0503 | 0.0551 | 0.0485 | 0.0568 | 0.0355 |
| L99P | 0.0689 | 0.0507 | 0.06 | 0.0722 | 0.0677 | 0.0727 | 0.0801 | – | – | – | 0.0512 | 0.0605 | 0.0639 | – | 0.0769 | 0.0801 | 0.0518 | 0.0511 | – |
